Results published in patent US4480030A, “Tripeptide derivatives and their application in assaying enzymes” (Pentapharm A.G., priority 1980, dated 1984).
Counter-ions that a name gives are not always drawn. Not every detail of the peptide structures is certain; ends, links or a residue may be inferred. Square brackets hold non-standard residues; d marks the D form. Peptide text beside a SMILES is read from it. * marks the point of attachment. dCha = N[C@H](CC1CCCCC1)C(=O)O; pNA = O=[N+]([O-])c1ccc(N*)cc1; AMC = Cc1cc(=O)oc2cc(N*)ccc12; Tos = Cc1ccc(S(=O)(=O)*)cc1; dNle = CCCC[C@@H](N)C(=O)O; dNva = CCC[C@@H](N)C(=O)O; dAbu = CC[C@@H](N)C(=O)O; βNA = c1ccc2cc(N*)ccc2c1; Cbz = O=C(OCc1ccccc1)*; Bz = O=C(c1ccccc1)*; Sar = CNCC(=O)O

Biological target: T1, bovine factor Xa (Bos taurus, UniProt P00743)
T1 construct: purchased Diagnostic Reagents Ltd., Thame, Great Britain factor Xa preparation "Diagen"
Assay: Activity of bovine factor Xa solution on chromogenic/fluorogenic substrate (split product H-R5 released)
Assay type: biochemical
Conditions: substrate concentration 2 × 10^-4; TRIS-imidazole buffer pH 8.4, ionic strength 0.3, 37° C.; factor Xa preparation "Diagen"; value calculated for 1 ml of factor Xa solution
Procedure: The values of the factor Xa activity given in Table 4 were determined experimentally in the manner described hereinafter:
For determining the activity of bovine factor Xa 1.8 ml of TRIS-imidazole buffer having a pH of 8.4 and an ionic strength of 0.3 was well mixed at 37° C. with 0.025 ml of an aqueous solution of factor Xa preparation "Diagen" (furnisher: Diagnostic Reagents Ltd., Thame, Great Britain) obtained by dissolving the contents of one vial in 0.5 ml of water. To the mixture there was added 0.2 ml of a 2×10^-3 M aqueous solution of a substrate of the invention. Thereafter, the quantity of split product H--R^5 in nanomoles released per minute was determined, and the corresponding value of 1 ml of factor Xa solution was calculated.

T1 sequence (P00743 234-492 limits assumed): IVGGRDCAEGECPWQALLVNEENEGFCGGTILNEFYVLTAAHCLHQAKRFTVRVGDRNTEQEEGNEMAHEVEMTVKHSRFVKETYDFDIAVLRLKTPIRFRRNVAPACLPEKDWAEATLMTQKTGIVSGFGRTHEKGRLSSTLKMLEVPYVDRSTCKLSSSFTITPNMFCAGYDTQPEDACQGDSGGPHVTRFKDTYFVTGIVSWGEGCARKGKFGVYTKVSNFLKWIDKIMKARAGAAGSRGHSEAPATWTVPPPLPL
T1 sequence (P00743 41-180 partner limits assumed): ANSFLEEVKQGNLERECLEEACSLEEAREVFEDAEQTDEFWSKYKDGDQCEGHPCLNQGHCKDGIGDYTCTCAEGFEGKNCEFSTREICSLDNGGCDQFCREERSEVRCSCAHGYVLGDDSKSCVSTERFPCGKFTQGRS

Structure (SMILES) | Activity of 1 ml of aqueous solution of bovine factor Xa, expressed in nanomoles of split product H--R^5 released per minute
CC[C@H](C)[C@H](NC(=O)c1ccccc1)C(=O)N[C@@H](CCC(=O)O)C(=O)NCC(=O)N[C@@H](CCCNC(=N)N)C(=O)Nc1ccc([N+](=O)[O-])cc1 [Comparison substrate, Bz--Ile--Glu(OH)--Gly--Arg--pNA.HCl, reference compound] (Bz-IEGR-pNA) | 490 nanomoles of split product H--
CC(C)C[C@@H](NC(=O)OCc1ccccc1)C(=O)NCC(=O)N[C@@H](CCCNC(=N)N)C(=O)Nc1ccc([N+](=O)[O-])cc1 [Example 1, Cbo-D-Leu-Gly-Arg-pNA.HBr] (Cbz-[dL]-Gly-Arg-pNA) | 2560 nanomoles of split product H--
Cc1cc(=O)oc2cc(NC(=O)[C@H](CCCNC(=N)N)NC(=O)CNC(=O)[C@@H](CC(C)C)NC(=O)OCc3ccccc3)ccc12 [Example 2, Cbo-D-Leu-Gly-Arg-MCA.HBr] (Cbz-[dL]-Gly-Arg-{AMC}) | 1180 nanomoles of split product H--
CC(C)C[C@@H](NC(=O)OCc1ccccc1)C(=O)N(C)CC(=O)N[C@@H](CCCNC(=N)N)C(=O)Nc1ccc2ccccc2c1 [Example 4, Cbo-D-Leu-Sar-Arg-2-NA.HBr] (Cbz-[dL]-[Sar]-Arg-βNA) | 1290 nanomoles of split product H--
COc1cc(NC(=O)[C@H](CCCNC(=N)N)NC(=O)CN(C)C(=O)[C@@H](CC(C)C)NC(=O)OCc2ccccc2)cc2ccccc12 [Example 5, Cbo-D-Leu-Sar-Arg-4-MeO-2-NA.HBr] | 1140 nanomoles of split product H--
CC(C)C[C@@H](NC(=O)OCc1ccccc1)C(=O)NCC(=O)N[C@@H](CCCNC(=N)N)C(=O)Nc1ccc([N+](=O)[O-])cc1 [Example 6, Cbo-D-Leu-Gly-Arg-pNA.AcOH] (Cbz-[dL]-Gly-Arg-pNA) | 2550 nanomoles of split product H--
Cc1ccc(S(=O)(=O)N[C@H](CC(C)C)C(=O)NCC(=O)N[C@@H](CCCNC(=N)N)C(=O)Nc2ccc([N+](=O)[O-])cc2)cc1 [Example 7, Tos-D-Leu-Gly-Arg-pNA.HBr] (Tos-[dL]-Gly-Arg-pNA) | 950 nanomoles of split product H--
CCCC[C@@H](NC(=O)OCc1ccccc1)C(=O)NCC(=O)N[C@@H](CCCNC(=N)N)C(=O)Nc1ccc([N+](=O)[O-])cc1 [Example 8, Cbo--D-Nleu--Gly--Arg--pNA.HBr] (Cbz-[dNle]-Gly-Arg-pNA) | 2780 nanomoles of split product H--
CCC[C@@H](NC(=O)OCc1ccccc1)C(=O)NCC(=O)N[C@@H](CCCNC(=N)N)C(=O)Nc1ccc([N+](=O)[O-])cc1 [Example 9, Cbo--D-Nval--Gly--Arg--pNA.HBr] (Cbz-[dNva]-Gly-Arg-pNA) | 2010 nanomoles of split product H--
CC[C@@H](NC(=O)OCc1ccccc1)C(=O)NCC(=O)N[C@@H](CCCNC(=N)N)C(=O)Nc1ccc([N+](=O)[O-])cc1 [Example 10, Cbo--D-But--Gly--Arg--pNA.HBr] (Cbz-[dAbu]-Gly-Arg-pNA) | 1332 nanomoles of split product H--
C[C@@H](NC(=O)OCc1ccccc1)C(=O)NCC(=O)N[C@@H](CCCNC(=N)N)C(=O)Nc1ccc([N+](=O)[O-])cc1 [Example 11, Cbo--D-Ala--Gly--Arg--pNA.HBr] (Cbz-[dA]-Gly-Arg-pNA) | 246 nanomoles of split product H--
N=C(N)NCCC[C@H](NC(=O)CNC(=O)[C@@H](CC1CCCCC1)NC(=O)OCc1ccccc1)C(=O)Nc1ccc([N+](=O)[O-])cc1 [Example 12, Cbo--D-CHA--Gly--Arg--pNA.HBr] (Cbz-[dCha]-Gly-Arg-pNA) | 1960 nanomoles of split product H--
